Measured values reported in a collection of fitness landscapes (doi:10.1126/science.1257360).
The list shows a part of the results.

B1: PhoQ; a variant is named by its letters at X, in order, P23837 (parent)
chain: MKKLLRLFFPLSLRVRFLLATAAVVLVLSLAYGMVALIGYSVSFDKTTFRLLRGESNLFYTLAKWENNKLHVELPENIDKQSPTMTLIYDENGQLLWAQRDVPWLMKMIQPDWLKSNGFHEIEADVNDTSLLLSGDHSIQQQLQEVREDDDDAEMTHSVAVNVYPATSRMPKLTIVVVDTIPVELKSSYMVWSWFIYVLSANLLLVIPLLWVAAWWSLRPIEALAKEVRELEEHNRELLNPATTRELTSLVRNLNRLLKSERERYDKYRTTLTDLTHSLKTPLXXLQXXLRSLRSEKMSVSDAEPVMLEQISRISQQIGYYLHRASMRGGTLLSRELHPVAPLLDNLTSALNKVYQRKGVNISLDISPEISFVGEQNDFVEVMGNVLDNACKYCLEFVEISARQTDEHLYIVVEDDGPGIPLSKREVIFDRGQRVDTLRPGQGVGLAVAREITEQYEGKIVAGESMLGGARMEVIFGRQHSAPKDE

Variants of: B1
Test: enrichment ratio after two sorts for PhoP signalling (ratio (wild type AVST 3.29)); higher = more functional
Settings: with PhoP (E. coli)

Row | Variant | enrichment ratio
1 | EIGI | ≤ 0.25
2 | VFPP | ≤ 0.25
3 | QYME | ≤ 0.25
4 | IWAV | ≤ 0.25
5 | MNRG | ≤ 0.25
6 | DVGD | ≤ 0.25
7 | PTSA | ≤ 0.25
8 | PFIA | ≤ 0.25
9 | LLPI | ≤ 0.25
10 | FAEQ | ≤ 0.25
11 | AVQR | ≤ 0.25
12 | MLMD | ≤ 0.25
13 | PRFR | ≤ 0.25
14 | KNKV | ≤ 0.25
15 | PFHV | ≤ 0.25
16 | FWFK | ≤ 0.25
17 | MSGF | 2.34
18 | WALA | ≤ 0.25
19 | TWAY | 0.77
20 | KDMR | ≤ 0.25
21 | WPWS | ≤ 0.25
22 | QPQR | ≤ 0.25
23 | KSFE | ≤ 0.25
24 | FPYC | ≤ 0.25

Row | Variant | enrichment ratio
25 | AYKF | ≤ 0.25
26 | MCAY | 4.41
27 | RVTC | ≤ 0.25
28 | EMRH | ≤ 0.25
29 | LCFT | ≤ 0.25
30 | TAVL | 0.363
31 | PVFL | ≤ 0.25
32 | DAGW | ≤ 0.25
33 | AKYD | ≤ 0.25
34 | SAPQ | ≤ 0.25
35 | YKMG | ≤ 0.25
36 | DLDD | ≤ 0.25
37 | YSSN | ≤ 0.25
38 | DYTV | ≤ 0.25
39 | TSNF | 16.1
40 | NMID | ≤ 0.25
41 | QRWV | ≤ 0.25
42 | TNYN | ≤ 0.25
43 | LPRR | ≤ 0.25
44 | ERQI | ≤ 0.25
45 | SLIQ | ≤ 0.25
46 | GMTN | ≤ 0.25
47 | CIIR | ≤ 0.25
48 | IPPC | ≤ 0.25

Row | Variant | enrichment ratio
49 | NIHM | ≤ 0.25
50 | LGCL | 0.413
51 | QEIT | ≤ 0.25
52 | RQMH | ≤ 0.25
53 | NPDH | ≤ 0.25
54 | PYPL | ≤ 0.25
55 | MFNC | ≤ 0.25
56 | TFAE | ≤ 0.25
57 | MLEP | ≤ 0.25
58 | MAQF | ≤ 0.25
59 | IYTC | ≤ 0.25
60 | YLEY | ≤ 0.25
61 | GWLC | ≤ 0.25
62 | QLKG | ≤ 0.25
63 | RGHW | ≤ 0.25
64 | FIKP | ≤ 0.25
65 | HMCT | ≤ 0.25
66 | FALR | ≤ 0.25
67 | YGFE | ≤ 0.25
68 | MEGP | ≤ 0.25
69 | WYND | ≤ 0.25
70 | QPDV | ≤ 0.25
71 | FWPT | ≤ 0.25
72 | TVNS | 18.9

Row | Variant | enrichment ratio
73 | ATHL | ≤ 0.25
74 | AILR | 8.68
75 | PIKD | ≤ 0.25
76 | RHSN | 0.686
77 | KSMC | ≤ 0.25
78 | INDE | ≤ 0.25
79 | SGIY | 3.04
80 | WKYT | ≤ 0.25
81 | NLQR | ≤ 0.25
82 | SCPN | ≤ 0.25
83 | HHDF | ≤ 0.25
84 | LSPW | ≤ 0.25
85 | LDPE | ≤ 0.25
86 | QVNE | ≤ 0.25
87 | DFPH | ≤ 0.25
88 | QFFF | ≤ 0.25
89 | EEFA | ≤ 0.25
90 | EYAM | ≤ 0.25
91 | IQFF | ≤ 0.25
92 | LMFC | ≤ 0.25
93 | RPAQ | ≤ 0.25
94 | GHAG | ≤ 0.25
95 | IWYA | ≤ 0.25
96 | NCLC | ≤ 0.25

Row | Variant | enrichment ratio
97 | RGFT | ≤ 0.25
98 | ITPD | ≤ 0.25
99 | IAYY | ≤ 0.25
100 | LNCW | ≤ 0.25
101 | LYYH | ≤ 0.25
102 | KIAN | ≤ 0.25
103 | SLVC | ≤ 0.25
104 | RSIA | ≤ 0.25
105 | LMCF | ≤ 0.25
106 | PTNQ | ≤ 0.25
107 | MEVA | 5.89
108 | RYEC | ≤ 0.25
109 | QLQD | ≤ 0.25
110 | KAMS | ≤ 0.25
111 | AERN | ≤ 0.25
112 | SYSS | 0.822
113 | LLRG | ≤ 0.25
114 | TEGH | 18.1
115 | NLHT | ≤ 0.25
116 | TWGF | ≤ 0.25
117 | TLDK | 0.477
118 | EAQD | ≤ 0.25
119 | PFYG | ≤ 0.25
120 | KRLC | ≤ 0.25

Row | Variant | enrichment ratio
121 | YQTT | ≤ 0.25
122 | TVNQ | 2.1
123 | LMMM | ≤ 0.25
124 | YYHM | ≤ 0.25
125 | NAVQ | ≤ 0.25
126 | PWES | ≤ 0.25
127 | WNAH | ≤ 0.25
128 | YKQM | ≤ 0.25
129 | IDWL | ≤ 0.25
130 | RKPN | ≤ 0.25
131 | AEFC | 6.7
132 | LPFY | ≤ 0.25
133 | QMRI | ≤ 0.25
134 | QEEC | ≤ 0.25
135 | DNWT | ≤ 0.25
136 | ELRY | ≤ 0.25
137 | LMVD | ≤ 0.25
138 | MEVS | 1.37
139 | RKHR | ≤ 0.25
140 | GPVC | ≤ 0.25
141 | HLRY | ≤ 0.25
142 | RGRS | ≤ 0.25
143 | GCMF | 3.35
144 | QWYF | ≤ 0.25

Row | Variant | enrichment ratio
145 | HFSL | ≤ 0.25
146 | LYIQ | ≤ 0.25
147 | LIAF | ≤ 0.25
148 | NNQG | ≤ 0.25
149 | PFFY | ≤ 0.25
150 | GIVS | 7.04
151 | PLFV | ≤ 0.25
152 | AMWY | ≤ 0.25
153 | QTFP | ≤ 0.25
154 | LITS | ≤ 0.25
155 | AGCG | ≤ 0.25
156 | KLLH | ≤ 0.25
157 | NHNT | ≤ 0.25
158 | NYDA | ≤ 0.25
159 | LLPT | ≤ 0.25
160 | SMLL | 11.2
161 | TIAG | 21.3
162 | VGIH | ≤ 0.25
163 | IMVW | ≤ 0.25
164 | GCCL | 4.47
165 | DWNG | ≤ 0.25
166 | SKCT | 14.2
167 | WNGY | ≤ 0.25
168 | TNRA | ≤ 0.25

Row | Variant | enrichment ratio
169 | TDQH | ≤ 0.25
170 | DCCD | ≤ 0.25
171 | CSFE | ≤ 0.25
172 | RSSF | ≤ 0.25
173 | WRLK | ≤ 0.25
174 | KPFY | ≤ 0.25
175 | HYHA | ≤ 0.25
176 | QKMS | ≤ 0.25
177 | EPAQ | ≤ 0.25
178 | KFES | ≤ 0.25
179 | SNCS | 19.6
180 | TIRP | ≤ 0.25
181 | MIDR | ≤ 0.25
182 | ITKN | ≤ 0.25
183 | FNYN | ≤ 0.25
184 | ATHS | ≤ 0.25
185 | YDHC | ≤ 0.25
186 | MHAR | ≤ 0.25
187 | VPNP | ≤ 0.25
188 | PRMV | 1.94
189 | IDSA | ≤ 0.25
190 | IHPS | ≤ 0.25
191 | AQHM | ≤ 0.25
192 | TDAR | ≤ 0.25

Row | Variant | enrichment ratio
193 | FDWI | ≤ 0.25
194 | FTNN | ≤ 0.25
195 | NKSF | ≤ 0.25
196 | FWAL | 0.585
197 | KTFA | 1.05
198 | DENT | ≤ 0.25
199 | GIDW | ≤ 0.25
200 | KFSV | ≤ 0.25
201 | NNFR | ≤ 0.25
202 | PMFM | 0.25
203 | PKGM | ≤ 0.25
204 | TCVG | ≤ 0.25
205 | VYWR | ≤ 0.25
206 | LVRQ | ≤ 0.25
207 | GHYA | ≤ 0.25
208 | GYYK | ≤ 0.25
209 | VSLY | 1.03
210 | FTAA | ≤ 0.25
211 | QDIA | ≤ 0.25
212 | NPRD | ≤ 0.25
213 | VDRI | ≤ 0.25
214 | WFGG | ≤ 0.25
215 | TMRV | ≤ 0.25
216 | KFYT | ≤ 0.25

Row | Variant | enrichment ratio
217 | WMYC | ≤ 0.25
218 | IEYK | ≤ 0.25
219 | MEDI | ≤ 0.25
220 | CKLD | ≤ 0.25
221 | YGFN | ≤ 0.25
222 | QHAK | ≤ 0.25
223 | HAKS | ≤ 0.25
224 | PAPY | ≤ 0.25
225 | RSAH | ≤ 0.25
226 | SHVM | 6.53
227 | MSRR | ≤ 0.25
228 | NFLG | ≤ 0.25
229 | FPST | ≤ 0.25
230 | IDEN | ≤ 0.25
231 | TMVM | ≤ 0.25
232 | LHFP | ≤ 0.25
233 | GRMQ | ≤ 0.25
234 | YELP | ≤ 0.25
235 | MGWD | ≤ 0.25
236 | QFAL | ≤ 0.25
237 | QFDN | ≤ 0.25
238 | SSPC | ≤ 0.25
239 | RHHG | ≤ 0.25
240 | PCRY | ≤ 0.25

Row | Variant | enrichment ratio
241 | RIDF | ≤ 0.25
242 | LLWY | ≤ 0.25
243 | PLYQ | ≤ 0.25
244 | TRWG | ≤ 0.25
245 | LWAD | ≤ 0.25
246 | SRWS | ≤ 0.25
247 | IYFE | ≤ 0.25
248 | DASV | ≤ 0.25
249 | MDEA | ≤ 0.25
250 | IKMY | ≤ 0.25
251 | PRVM | ≤ 0.25
252 | SISY | 9.74
253 | KNAC | ≤ 0.25
254 | MHFL | ≤ 0.25
255 | MAVF | ≤ 0.25
256 | CILT | ≤ 0.25
257 | WHCF | ≤ 0.25
258 | IDDA | ≤ 0.25
259 | SNGL | 6.07
260 | FFDH | ≤ 0.25
261 | LYCE | ≤ 0.25
262 | SSGG | ≤ 0.25
263 | GPDI | ≤ 0.25
264 | HNKR | ≤ 0.25

Row | Variant | enrichment ratio
265 | WWLF | ≤ 0.25
266 | ASTG | 14.7
267 | GHYT | ≤ 0.25
268 | QFNN | ≤ 0.25
269 | WSGG | ≤ 0.25
270 | HQFF | ≤ 0.25
271 | MMWH | 1.55
272 | MCQI | ≤ 0.25
273 | RAVC | ≤ 0.25
274 | VMEF | ≤ 0.25
275 | RLYA | ≤ 0.25
276 | GCGM | 2.98
277 | VRAT | ≤ 0.25
278 | MDVR | ≤ 0.25
279 | RFKI | ≤ 0.25
280 | DIFM | ≤ 0.25
281 | GKSN | ≤ 0.25
282 | TIPP | ≤ 0.25
283 | AYSS | ≤ 0.25
284 | GCSN | 3.22
285 | NMAT | ≤ 0.25
286 | DTVN | ≤ 0.25
287 | TDSG | 3.25
288 | PDVD | ≤ 0.25

Row | Variant | enrichment ratio
289 | RDDV | ≤ 0.25
290 | SDMR | ≤ 0.25
291 | NRLN | ≤ 0.25
292 | DIQA | ≤ 0.25
293 | QMRG | ≤ 0.25
294 | QPRL | ≤ 0.25
295 | DVQR | ≤ 0.25
296 | FLES | ≤ 0.25
297 | FKNK | ≤ 0.25
298 | SGGI | 11.1
299 | FQAK | ≤ 0.25
300 | ITYI | ≤ 0.25
301 | EVLA | ≤ 0.25
302 | QGAM | 13
303 | FNNW | ≤ 0.25
304 | VDCH | 2.16
305 | SQVR | ≤ 0.25
306 | FFDP | ≤ 0.25
